We go through two compounds from patent US4076815A, “Quinoxaline compound and composition, process for preparing compound, and method of combatting cholera therewith” (Istituto Chemioterapico Italiano, S.p.A., priority 1977, dated 1978).

Data set [1] deals with five strains of vibrio cholerae. The data set is described as follows: Summary of effect on five strains of vibrio cholerae.
Data set [2] is described as follows: Acute toxicity in four species (summary). To be noted: several modes of administration.
Data set [3] in a line: Subacute toxicity in female rats, gastric gavage 21 days. To be noted: 2 g/kg/day gavage, death caused by a mistake in esophagus incannulation.
Data set [4] can be described thus: Chronic toxicity in the female mouse, gastric gavage 18 weeks. The following applies: for Dead/Treated: 18 weeks; for Fresh Organ-to-Body Weight Ratio, Heart / Fresh Organ-to-Body Weight Ratio, Lungs: m ± SE, 4 animals; for SGPT: mean of 6 animals, 24 hours after last dose.
A further data set relates to cholera. The data set is described as follows: Prophylactic oral administration to humans exposed to cholera. The following applies: oral, 0.3 to 5 g per day for 3-5 days, epidemic conditions.

For `Nc1nccc(C=Cc2c[n+]([O-])c3ccccc3[n+]2[O-])n1` [CO-1, 2-[2-(2-amino-4-pyrimidinyl)ethenyl]-quinoxaline 1,4-dioxide], the “growth of the organisms after 48 hours” value in data set [1] (10 μg/ml of CO-1, five strains) is listed as “no growth of 3 of the organisms after 48 hours”. Also, the “growth of the remaining two organisms” value in data set [1] (100 μg/ml of CO-1) is listed as “only marginal growth of the remaining two”. Also, the order of toxicity entry in data set [2] was “low order of toxicity”. Further, in data set [3], the Dead/Treated is 1/6. For the same compound, in data set [4] (250 mg/kg/day), the Dead/Treated is on record as 0/10; the “Fresh Organ-to-Body Weight Ratio, Heart” value is 0.60 ± 0.08; the “Fresh Organ-to-Body Weight Ratio, Lungs” value was 0.731 ± 0.035; the SGPT worked out at 5 Units/ml. In addition, in data set [4] (500 mg/kg/day), the “Urine Amount excreted by 6 animals in 6 hours” value turned out to be 7 mL; the Dead/Treated is on record as 2/10; the “Fresh Organ-to-Body Weight Ratio, Heart” value stood at 0.47 ± 0.02; the “Fresh Organ-to-Body Weight Ratio, Lungs” value was 1.011 ± 0.110. The same compound displayed an SGPT in data set [4] (500 mg/kg/day) of 6 Units/ml. In addition, the treated persons infected result in the data set on cholera is recorded as “None of the treated persons become infected”.
As for `Cc1cc(C=Cc2c[n+]([O-])c3ccccc3[n+]2[O-])nc(N)n1` [CO-2, 2-[2-(2-amino-6-methyl-4-pyrimidinyl)ethenyl]-quinoxaline 1,4-dioxide], in data set [1] (10 g/ml (so in the source) of CO-2, five strains), the “growth of the organisms after 48 hours” value is “no growth after 48 hours of 3 of the organisms”. In addition, the “growth of the remaining two organisms” value in data set [1] (100 g/ml (so in the source) of CO-2) was “only marginal growth of the remaining two”. For the same compound, the treated persons infected result in the data set with cholera was “None of the treated persons become infected”.
